Source: US11618753B2 (priority 2018, dated 2023)

test system: MLKL phosphorylation, HT29-L23 human colorectal adenocarcinoma cells; assay: cells; settings: read-out: pMLKL HCS Cell Assay (IC50, uM)

SMILES	IC50 [µM]
Nc1ncnn2c(-c3cccc(C(=O)N[C@@H]4CN(C(=O)C5CC5(F)F)C[C@@H]4F)c3)cc(CN3CC(F)(F)C3)c12 (stereo partly drawn) [Example 1177, 3-{4-amino-5-[(3,3-difluoroazetidin-1-yl)methyl]pyrrolo[2,1-f][1,2,4]triazin-7-yl}-N-[(3R,4S)-1-(2,2-difluorocyclopropanecarbonyl)-4-fluoropyrrolidin-3-yl]benzamide]	0.00079
Nc1ncnn2c(-c3cccc(C(=O)N[C@@H]4CN(C(=O)C5CCC(F)(F)C5)C[C@@H]4F)c3)cc(CN3CC(F)(F)C3)c12 (stereo partly drawn) [Example 1178, 3-{4-amino-5-[(3,3-difluoroazetidin-1-yl)methyl]pyrrolo[2,1-f][1,2,4]triazin-7-yl}-N-[(3R,4S)-1-(3,3-difluorocyclopentanecarbonyl)-4-fluoropyrrolidin-3-yl]benzamide]	0.0018
Nc1ncnn2c(-c3cccc(C(=O)N[C@@H]4CN(C(=O)C5CCC(F)(F)CC5)C[C@@H]4F)c3)cc(CN3CC(F)(F)C3)c12 [Example 1179, 3-{4-amino-5-[(3,3-difluoroazetidin-1-yl)methyl]pyrrolo[2,1-f][1,2,4]triazin-7-yl}-N-[(3R,4S)-1-(4,4-difluorocyclohexanecarbonyl)-4-fluoropyrrolidin-3-yl]benzamide]	0.0024
C[C@@](O)(C(=O)N1C[C@H](F)[C@H](NC(=O)c2cccc(-c3cc(CN4CC(F)(F)C4)c4c(N)ncnn34)c2)C1)C(F)(F)F [Example 1180, 3-{4-amino-5-[(3,3-difluoroazetidin-1-yl)methyl]pyrrolo[2,1-f][1,2,4]triazin-7-yl}-N-[(3R,4S)-4-fluoro-1-[(2R)-3,3,3-trifluoro-2-hydroxy-2-methylpropanoyl]pyrrolidin-3-yl]benzamide]	0.0011
Nc1ncnn2c(-c3cccc(C(=O)N[C@@H]4CN(C(=O)C5CC(F)(F)C5)C[C@@H]4F)c3)cc(CN3CC(F)(F)C3)c12 [Example 1181, 3-{4-amino-5-[(3,3-difluoroazetidin-1-yl)methyl]pyrrolo[2,1-f][1,2,4]triazin-7-yl}-N-[(3R,4S)-1-(3,3-difluorocyclobutanecarbonyl)-4-fluoropyrrolidin-3-yl]benzamide]	0.0013
Cc1nc(C)c(-c2cc(C(F)(F)F)c3c(N)ncnn23)cc1C(=O)N[C@@H]1CN(C(=O)C2(F)CC2)C[C@@H]1F [Example 1182, 5-[4-amino-5-(trifluoromethyl)pyrrolo[2,1-f][1,2,4]triazin-7-yl]-N-[(3R,4S)-4-fluoro-1-(1-fluorocyclopropane-carbonyl)pyrrolidin-3-yl]-2,6-dimethylpyridine-3-carboxamide]	0.139
Cc1nc(C)c(-c2cc(C(F)(F)F)c3c(N)ncnn23)cc1C(=O)N[C@@H]1CN(C(=O)C(C)(C)F)C[C@@H]1F [Example 1183, 5-[4-amino-5-(trifluoromethyl)pyrrolo[2,1-f][1,2,4]triazin-7-yl]-N-[(3R,4S)-4-fluoro-1-(2-fluoro-2-methylpropanoyl)pyrrolidin-3-yl]-2,6-dimethylpyridine-3-carboxamide]	0.209
Cc1nc(C)c(-c2cc(C(F)(F)F)c3c(N)ncnn23)cc1C(=O)N[C@@H]1CN(C(=O)c2ccc(F)cc2F)C[C@@H]1F [Example 1184, 5-[4-amino-5-(trifluoromethyl)pyrrolo[2,1-f][1,2,4]triazin-7-yl]-N-[(3R,4S)-1-(2,4-difluorobenzoyl)-4-fluoropyrrolidin-3-yl]-2,6-dimethylpyridine-3-carboxamide]	0.023
Cc1nc(C)c(-c2cc(C(F)(F)F)c3c(N)ncnn23)cc1C(=O)N[C@@H]1CN(C(=O)[C@@](C)(O)C(F)(F)F)C[C@@H]1F [Example 1185, 5-[4-amino-5-(trifluoromethyl)pyrrolo[2,1-f][1,2,4]triazin-7-yl]-N-[(3R,4S)-4-fluoro-1-[(2R)-3,3,3-trifluoro-2-hydroxy-2-methylpropanoyl]pyrrolidin-3-yl]-2,6-dimethylpyridine-3-carboxamide]	0.189
Cc1nc(C)c(-c2cc(C(F)(F)F)c3c(N)ncnn23)cc1C(=O)N[C@@H]1CN(C(=O)c2ccccc2Cl)C[C@@H]1F [Example 1186, 5-[4-amino-5-(trifluoromethyl)pyrrolo[2,1-f][1,2,4]triazin-7-yl]-N-[(3R,4S)-1-(2-chlorobenzoyl)-4-fluoropyrrolidin-3-yl]-2,6-dimethylpyridine-3-carboxamide]	0.036
Cc1nc(C)c(-c2cc(C(F)(F)F)c3c(N)ncnn23)cc1C(=O)N[C@@H]1CN(C(=O)CC(C)C(F)(F)F)C[C@@H]1F (stereo partly drawn) [Example 1187, 5-[4-amino-5-(trifluoromethyl)pyrrolo[2,1-f][1,2,4]triazin-7-yl]-N-[(3R,4S)-4-fluoro-1-(4,4,4-trifluoro-3-methylbutanoyl)pyrrolidin-3-yl]-2,6-dimethylpyridine-3-carboxamide]	0.013
Cc1nc(C)c(-c2cc(C(F)(F)F)c3c(N)ncnn23)cc1C(=O)N[C@@H]1CN(C(=O)c2c(F)cncc2F)C[C@@H]1F [Example 1188, 5-[4-amino-5-(trifluoromethyl)pyrrolo[2,1-f][1,2,4]triazin-7-yl]-N-[(3R,4S)-1-(3,5-difluoropyridine-4-carbonyl)-4-fluoropyrrolidin-3-yl]-2,6-dimethylpyridine-3-carboxamide]	0.086
Cc1nc(C)c(-c2cc(C(F)(F)F)c3c(N)ncnn23)cc1C(=O)N[C@@H]1CN(C(=O)c2ccccc2)C[C@@H]1F [Example 1189, 5-[4-amino-5-(trifluoromethyl)pyrrolo[2,1-f][1,2,4]triazin-7-yl]-N-[(3R,4S)-1-benzoyl-4-fluoropyrrolidin-3-yl]-2,6-dimethylpyridine-3-carboxamide]	0.027
Cc1nc(C)c(-c2cc(C(F)(F)F)c3c(N)ncnn23)cc1C(=O)N[C@@H]1CN(C(=O)c2ccccc2F)C[C@@H]1F [Example 1190, 5-[4-amino-5-(trifluoromethyl)pyrrolo[2,1-f][1,2,4]triazin-7-yl]-N-[(3R,4S)-4-fluoro-1-(2-fluorobenzoyl]pyrrolidin-3-yl]-2,6-dimethylpyridine-3-carboxamide]	0.012
Cc1nc(C)c(-c2cc(C(F)(F)F)c3c(N)ncnn23)cc1C(=O)N[C@@H]1CN(C(=O)c2cccc(F)c2)C[C@@H]1F [Example 1191, 5-[4-amino-5-(trifluoromethyl)pyrrolo[2,1-f][1,2,4]triazin-7-yl]-N-[(3R,4S)-4-fluoro-1-(3-fluorobenzoyl)pyrrolidin-3-yl]-2,6-dimethylpyridine-3-carboxamide]	0.022
Cc1nc(C)c(-c2cc(C(F)(F)F)c3c(N)ncnn23)cc1C(=O)N[C@@H]1CN(C(=O)c2ccncc2F)C[C@@H]1F [Example 1192, 5-[4-amino-5-(trifluoromethyl)pyrrolo[2,1-f][1,2,4]triazin-7-yl]-N-[(3R,4S)-4-fluoro-1-(3-fluoropyridine-4-carbonyl)pyrrolidin-3-yl]-2,6-dimethylpyridine-3-carboxamide]	0.098
Cc1nc(C)c(-c2cc(C(F)(F)F)c3c(N)ncnn23)cc1C(=O)N[C@@H]1CN(C(=O)CC(C(F)(F)F)C(F)(F)F)C[C@@H]1F [Example 1193, 5-[4-amino-5-(trifluoromethyl)pyrrolo[2,1-f][1,2,4]triazin-7-yl]-N-[(3R,4S)-4-fluoro-1-[4,4,4-trifluoro-3-(trifluoromethyl)butanoyl]pyrrolidin-3-yl]-2,6-dimethylpyridine-3-carboxamide]	0.029
Cc1nc(C)c(-c2cc(C(F)(F)F)c3c(N)ncnn23)cc1C(=O)N[C@@H]1CN(C(=O)CC(C)(O)C(F)(F)F)C[C@@H]1F (stereo partly drawn) [Example 1194, 5-[4-amino-5-(trifluoromethyl)pyrrolo[2,1-f][1,2,4]triazin-7-yl]-N-[(3R,4S)-4-fluoro-1-(4,4,4-trifluoro-3-hydroxy-3-methylbutanoyl)pyrrolidin-3-yl]-2,6-dimethylpyridine-3-carboxamide]	0.166
Cc1nc(C)c(-c2cc(C(F)(F)F)c3c(N)ncnn23)cc1C(=O)N[C@@H]1CN(C(=O)CC(C)C)C[C@@H]1F [Example 1195, 5-[4-amino-5-(trifluoromethyl)pyrrolo[2,1-f][1,2,4]triazin-7-yl]-N-[(3R,4S)-4-fluoro-1-(3-methylbutanoyl)pyrrolidin-3-yl]-2,6-dimethylpyridine-3-carboxamide]	0.041
Cc1nc(C)c(-c2cc(C(F)(F)F)c3c(N)ncnn23)cc1C(=O)N[C@@H]1CN(C(=O)c2cc(F)ccc2F)C[C@@H]1F [Example 1197, 5-[4-amino-5-(trifluoromethyl)pyrrolo[2,1-f][1,2,4]triazin-7-yl]-N-[(3R,4S)-1-(2,5-difluorobenzoyl)-4-fluoropyrrolidin-3-yl]-2,6-dimethylpyridine-3-carboxamide]	0.023
Cc1nc(C)c(-c2cc(C(F)(F)F)c3c(N)ncnn23)cc1C(=O)N[C@@H]1CN(C(=O)c2ccc(F)c(F)c2)C[C@@H]1F [Example 1198, 5-[4-amino-5-(trifluoromethyl)pyrrolo[2,1-f][1,2,4]triazin-7-yl]-N-[(3R,4S)-1-(3,4-difluorobenzoyl)-4-fluoropyrrolidin-3-yl]-2,6-dimethylpyridine-3-carboxamide]	0.067
CCC(O)(C(=O)N1C[C@H](F)[C@H](NC(=O)c2cc(-c3cc(C(F)(F)F)c4c(N)ncnn34)c(C)nc2C)C1)C(F)(F)F (stereo partly drawn) [Example 1199, 5-[4-amino-5-(trifluoromethyl)pyrrolo[2,1-f][1,2,4]triazin-7-yl]-N-[(3R,4S)-4-fluoro-1-[2-hydroxy-2-(trifluoromethyl)butanoyl]pyrrolidin-3-yl]-2,6-dimethylpyridine-3-carboxamide]	0.164
Cc1nc(C)c(-c2cc(C(F)(F)F)c3c(N)ncnn23)cc1C(=O)N[C@@H]1CN(C(=O)c2c(F)cccc2F)C[C@@H]1F [Example 1200, 5-[4-amino-5-(trifluoromethyl)pyrrolo[2,1-f][1,2,4]triazin-7-yl]-N-[(3R,4S)-1-(2,6-difluorobenzoyl)-4-fluoropyrrolidin-3-yl]-2,6-dimethylpyridine-3-carboxamide]	0.02
